Several values for one entry are separate records, joined by “and”; a condition that tells them apart may be missing. Equal values may be shown once. This list was built around the results that the source calls inconclusive (neither active nor inactive); the mix of calls is not that of the screen. For part of these data: Potencies of inconclusive entries are doubtful fits and often do not repeat. Activity calls are given as the source filed them. The call rests on the fitted dose curve; in most records, active means well fitted curve in the direction sought with a large enough effect; inconclusive means small, poorly fitted or top-dose-only effect, or another doubt; inactive means no such curve, though single readings can be large; an effect the other way counts as inactive or inconclusive.
Legend:
CRL-7250 = normal cell line; test: Cytotoxic Profiling of Annotated Libraries Using Quantitative High-Throughput Screening (AID 1296008); conditions: Five cell lines viability, CellTiter-Glo ATP luminescence, 48-72 h; max response: stronger effect = lower value; further: nearly all actives have a fitted effect of over 60% in size
Method in brief: (§1)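 Cytotoxicity was measured as CellTiter-Glo ATP luminescence, read after 10 min at room temperature. Compound treatment of the cells lasted 48 or 72 hr at 37 degrees Celsius in a qHTS format.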

HaCat = test: as above; conditions: Five cell lines viability, CellTiter-Glo ATP luminescence, 48-72 h; max response: stronger effect = lower value
Method in brief: as §1

NIH3T3 = test: as above; conditions: Five cell lines viability, CellTiter-Glo ATP luminescence, 48-72 h; max response: stronger effect = lower value
Method in brief: as §1

MKL-1 = test: qHTS assay to identify novel small-molecules to repurpose for Merkel cell carcinoma treatment (AID 1296009); conditions: MCC and control cell lines, CellTiter-Glo viability, 72 h; series mostly up to 46 µM; further: nearly all actives have a fitted effect of over 60% in size
Method in brief: (§2)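 Cell viability, measured as CellTiter-Glo luminescence, was normalized between DMSO and no-cell wells. The cells had been exposed to 8- or 11-point compound dilutions for 72 hr at 37 degree celsius.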

MKL-2 = test: as above; conditions: MCC and control cell lines, CellTiter-Glo viability, 72 h; series mostly up to 46 µM
Method in brief: as §2

UISO = test: as above; conditions: MCC and control cell lines, CellTiter-Glo viability, 72 h; series mostly up to 46 µM
Method in brief: as §2

HEK293 = test: Cytotoxic Profiling of Annotated Libraries Using Quantitative High-Throughput Screening (AID 1296008); conditions: Five cell lines viability, CellTiter-Glo ATP luminescence, 48-72 h; max response: stronger effect = lower value; further: nearly all actives have a fitted effect of over 60% in size
Method in brief: as §1

[1] = Drug repurposing screens with cells derived from glioblastoma tumor samples (AID 1345199); conditions: GBM patient neurospheres viability, ATP luminescence, 48 h; Potency: tumour line A unless noted; activity, negative = cell killing: at 46 µM (top of the series), tumour line A unless noted; further: nearly all actives have a fitted effect of over 40% in size
Method in brief: (§3)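 Primary testing used CD133+ neurospheres from four GBM patients, seven concentrations, 48 h exposure and ATP-based viability; confirmation added three slower-growing patient lines.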

astro = test: as above; conditions: viability, ATP luminescence, 48 h; activity, negative = cell killing: at 45.9 µM (top of the series)
Method in brief: as §3

CAOV3 = test: Primary qHTS to identify gynecologic anti-cancer compounds using libraries of approved drugs and bioactive compounds (AID 1345084); conditions: Gynecologic cancer cell panel viability, ATPlite luminescence, 48 h; series mostly up to 57.5 µM; further: nearly all actives have a fitted effect of over 55% in size
Method in brief: (§4)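 Measured: luminescence after ATPlite addition (15 min, RT). Exposure: 48 h, 37 C, 5% CO2.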

KB-3-1 = test: Cytotoxic Profiling of Annotated Libraries Using Quantitative High-Throughput Screening (AID 1296008); conditions: Five cell lines viability, CellTiter-Glo ATP luminescence, 48-72 h; max response: stronger effect = lower value; further: nearly all actives have a fitted effect of over 60% in size
Method in brief: as §1

MCC-13 = test: qHTS assay to identify novel small-molecules to repurpose for Merkel cell carcinoma treatment (AID 1296009); conditions: MCC and control cell lines, CellTiter-Glo viability, 72 h; series mostly up to 46 µM; further: nearly all actives have a fitted effect of over 60% in size
Method in brief: as §2

MCC-26 = test: as above; conditions: MCC and control cell lines, CellTiter-Glo viability, 72 h; series mostly up to 46 µM
Method in brief: as §2

C33A = test: Primary qHTS to identify gynecologic anti-cancer compounds using libraries of approved drugs and bioactive compounds (AID 1345084); conditions: Gynecologic cancer cell panel viability, ATPlite luminescence, 48 h; series mostly up to 57.5 µM; further: nearly all actives have a fitted effect of over 55% in size
Method in brief: as §4

CASKI = test: as above; conditions: Gynecologic cancer cell panel viability, ATPlite luminescence, 48 h; series mostly up to 57.5 µM
Method in brief: as §4

Es-2 = test: as above; conditions: Gynecologic cancer cell panel viability, ATPlite luminescence, 48 h; series mostly up to 57.5 µM
Method in brief: as §4

HeLa = test: as above; conditions: Gynecologic cancer cell panel viability, ATPlite luminescence, 48 h; series mostly up to 57.5 µM
Method in brief: as §4

[2] = qHTS assay to identify inhibitors of the type 1 interferon - major histocompatibility complex class I in skeletal muscle: Counter screen cell viability and HiBit confirmation (AID 1347412); conditions: iHSKM muscle cells + IFN-b, HiBiT or CellTiter-Glo, 24 h; further: nearly all actives have a fitted effect of over 60% in size
Method in brief: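 CRISPR HLA-B*08:01-HiBit immortalized human myoblasts (C25cl48) stimulated with 4 ng/ml IFN-beta and compounds (12-point 1:3, top 46 uM final) for 24 h at 37 C. Duplicate plates read by HiBit lytic luminescence or CellTiter Glo ATP.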

W2 = test: qHTS profiling for inhibitors of Plasmodium falciparum proliferation (AID 504749); further: nearly all actives have a fitted effect of over 60% in size; conditions: P. falciparum in erythrocytes, SYBR Green DNA, 72 h; series mostly up to 28.7 µM
Method in brief: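 SYBR Green fluorescence of parasite DNA, read after lysis and overnight dark incubation, measured growth over 72 h in erythrocyte culture at 0.3% parasitemia and 2.5% hematocrit. Data normalised to DMSO and 0.29 uM artemisinin, with plate-drift correction.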

WaGa = test: qHTS assay to identify novel small-molecules to repurpose for Merkel cell carcinoma treatment (AID 1296009); conditions: MCC and control cell lines, CellTiter-Glo viability, 72 h; series mostly up to 46 µM; further: nearly all actives have a fitted effect of over 60% in size
Method in brief: as §2
Potency means the concentration at half of the fitted maximal effect; tags describe the fitted curve by direction and shape.

## OCc1ccc(-c2nn(Cc3ccccc3)c3ccccc23)o1
CRL-7250
  Potency: inconclusive: 33.2 µM [inhibitor, single point]
HaCat
  Potency: inconclusive: 37.2 µM [inhibitor, single point]
NIH3T3
  Potency: inconclusive: 18.7 µM [inhibitor, partial curve]
MKL-1
  Potency: inconclusive: 26.4 µM [inhibitor, single point]
MKL-2
  Potency: active: 18.7 µM
UISO
  Potency: active: 11.8 µM

## CC1=C(/C=C/C(C)=C/C=C/C(C)=C/C(=O)O)C(C)(C)CCC1
CRL-7250
  Potency: inconclusive: 0.0106 µM [inhibitor, full curve]
HEK293
  Potency: inconclusive: 33.5 µM [inhibitor, single point]
MKL-1
  Potency: inconclusive: 4.73 µM [inhibitor, partial curve]
MKL-2
  Potency: inconclusive: 10.6 µM [inhibitor, partial curve]
[1]
  Potency: inconclusive: 0.0003 µM [inhibitor]
astro
  Potency: inconclusive: 0.562 µM [inhibitor, full curve, poor fit]
CAOV3
  Potency: inactive

## Cc1ccc(C(=O)Nc2cccc(C(F)(F)F)c2)cc1-c1ccc2nc(NCCN3CCOCC3)ncc2c1
CRL-7250
  Potency: active: 4.18 µM and active: 7.31 µM
HaCat
  Potency: inconclusive: 10.5 µM [inhibitor, full curve] and active: 6.51 µM
KB-3-1
  Potency: active: 16.6 µM and inconclusive: 8.2 µM [inhibitor, partial curve]
MCC-13
  Potency: active: 11.8 µM
MCC-26
  Potency: active: 18.7 µM
MKL-1
  Potency: inconclusive: 26.4 µM [inhibitor, single point]
C33A
  Potency: inconclusive: 12.6 µM [cytotoxic, partial curve, poor fit]
CAOV3
  Potency: active: 22.4 µM
CASKI
  Potency: active: 14.1 µM
Es-2
  Potency: active: 11.2 µM
HeLa
  Potency: active: 11.2 µM

## COc1ccc(Nc2cc(-c3cnc(N)nc3)nc(N3CCOCC3)n2)cn1
CRL-7250
  Potency: inconclusive: 1.18 µM [inhibitor, full curve]
HaCat
  Potency: active: 2.64 µM
NIH3T3
  Potency: active: 3.32 µM
MCC-13
  Potency: inconclusive: 5.26 µM [inhibitor, full curve]
MCC-26
  Potency: inconclusive: 5.26 µM [inhibitor, full curve]
MKL-2
  Potency: inconclusive: 4.18 µM [inhibitor, full curve, poor fit]
UISO
  Potency: active: 4.18 µM
[2]; HiBiT
  Potency: inconclusive: 1.25 µM [inhibitor, full curve]
[2]; Viability
  Potency: inconclusive: 2.79 µM [cytotoxic, full curve]

## CCCCOc1ccc(C(=O)CCN2CCCCC2)cc1
W2
  Potency: inconclusive: 0.642 µM [inhibitor, partial curve]
CRL-7250
  Potency: inconclusive: 33.5 µM [inhibitor, single point]
HEK293
  Potency: inconclusive: 23.7 µM [inhibitor, single point]
MKL-1
  Potency: active: 9.44 µM
MKL-2
  Potency: active: 2.66 µM
UISO
  Potency: inconclusive: 21.1 µM [inhibitor, single point]
CAOV3
  Potency: inconclusive: 25.1 µM [cytotoxic, partial curve, poor fit]
CASKI
  Potency: inactive
Es-2
  Potency: inconclusive: 25.1 µM [cytotoxic, single point]
HeLa
  Potency: inactive

## CSc1ccc2c(c1)N(CCC1CCCCN1C)c1ccccc1S2 (stereo unspecified)
W2
  Potency: active: 6.75 µM
CRL-7250
  Potency: inconclusive: 23.7 µM [inhibitor, single point]
HaCat
  Potency: inconclusive: 26.6 µM [inhibitor, single point]
NIH3T3
  Potency: inconclusive: 33.5 µM [inhibitor, single point]
MCC-13
  Potency: active: 26.6 µM
MKL-1
  Potency: active: 11.9 µM
UISO
  Potency: active: 26.6 µM
WaGa
  Potency: active: 23.7 µM
astro
  Potency: active: 20 µM
C33A
  Potency: inconclusive: 39.8 µM [cytotoxic, single point]
CAOV3
  Potency: inconclusive: 28.2 µM [cytotoxic, single point]
CASKI
  Potency: inconclusive: 39.8 µM [cytotoxic, single point]

## CCOc1ccc(Cc2nccc3cc(OCC)c(OCC)cc23)cc1OCC
W2
  Potency: inconclusive: 2.87 µM [inhibitor, partial curve]
CRL-7250
  Potency: active: 15 µM
HEK293
  Potency: active: 7.5 µM
MCC-13
  Potency: inconclusive: 8.41 µM [inhibitor, partial curve]
MKL-1
  Potency: inconclusive: 18.8 µM [inhibitor, partial curve]
UISO
  Potency: inconclusive: 10.6 µM [inhibitor, partial curve]
WaGa
  Potency: inconclusive: 15 µM [inhibitor, partial curve]
astro
  Potency: inconclusive: 15.8 µM [inhibitor, partial curve, poor fit]
C33A
  Potency: inconclusive: 3.98 µM [cytotoxic, partial curve, poor fit]
CASKI
  Potency: inconclusive: 35.5 µM [cytotoxic, single point]
Es-2
  Potency: inconclusive: 14.1 µM [cytotoxic, partial curve]
